The subject of the data set is ATP. As to the kind of experiment: switch fluorescence ratio, 500 uM ATP over buffer (Cy3 cluster intensity, sum of 5 cycles each) (fold (ratio)); higher = stronger signal-on switching upon ATP binding; sequences stand for … in TCGTCGGCAGCGTCAGATGTGTATAAGAGACAGTTTTTTTTTTTTTTTTTTTTTTTTT…TC. The settings on record: aptamer strand: ATP DNA aptamer (quencher-CACCTGGGGGAGTATTGCGGAGGAAGG + anchor), 100 nM annealed; ATP concentration: 500 uM; one replicate. The procedure, abridged: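 Imaging in selection buffer was followed by imaging after 15 min with 500 uM ATP at 22 °C, for Cy3-labelled switching-strand clusters annealed to 100 nM quencher-labelled ATP aptamer on a modified Illumina MiSeq flow-cell. Five of these buffer/ATP cycles ran, separated by NaOH stripping and re-annealing. The fluorescence ratio per cluster is summed target-cycle over summed buffer-cycle Cy3 intensity, averaged per switch-domain sequence; clusters outside 100-1000 RFU were removed.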

Values marked as one replicate rest on one cluster of the flow cell; about a third of the high ones do not repeat.
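Further: ATP exposure 15 min at 22 °C before imaging.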

Consider TTGTTTGGGC, for which the switch fluorescence ratio was 0.98.

For the sequence AATTCTTCAG, the switch fluorescence ratio is 1.04.

As to ATAGAAAGAG, the switch fluorescence ratio was 0.993.

With AGATTTTCGG, the switch fluorescence ratio amounted to 0.978.

For TAGCAAAGAC, the switch fluorescence ratio is 2.66.

On to CTGTAAAAGA, for which the switch fluorescence ratio came to 0.96.

Consider AACTGGAGTC, for which the switch fluorescence ratio worked out at 0.991.

With TATTACTCAA, the switch fluorescence ratio was 1.02.

With CTCGAAAGGT, the switch fluorescence ratio was 0.996.

For TATTGTCCGG, the switch fluorescence ratio is 1.

GACTTTGGCC: the switch fluorescence ratio is 0.983.

As to TCGTGTTTCC, the switch fluorescence ratio turned out to be 1.05.

On to GACCTCTTGC, for which the switch fluorescence ratio turned out to be 1.01.

For TGCTAGGCGA, the switch fluorescence ratio turned out to be 1.03.

For the sequence ACAATTTAAC, the switch fluorescence ratio turned out to be 1.04.

On to AGGCCCATCA, for which the switch fluorescence ratio was found to be 0.986.

Regarding TAAGCACAAA, the switch fluorescence ratio was found to be 1.21.

Consider CGAGAGAGAT, for which the switch fluorescence ratio worked out at 1.

As for ACGATGGTGG, the switch fluorescence ratio was found to be 0.837.

As for GCGTTACTTG, the switch fluorescence ratio stood at 1.18.

For TATTGTTTCT, the switch fluorescence ratio was 1.01.

Consider TAAATAGGA, for which the switch fluorescence ratio was 1.01.

Consider AATAGTCTT, for which the switch fluorescence ratio amounted to 0.962.

For the sequence ACCTTTATTC, the switch fluorescence ratio came to 1.05.

As to GCAGTAGCAC, the switch fluorescence ratio came out at 0.999.

As for TGTAGCTGAG, the switch fluorescence ratio stood at 1.06.

In the case of TGCTTGCTT, the switch fluorescence ratio was 1.07.

GGCAGTGC: the switch fluorescence ratio is 1.27.

In the case of ATCAACGGAC, the switch fluorescence ratio was found to be 1.35.

Regarding AAAATAGGTT, the switch fluorescence ratio came to 0.973.

TGATTTCTCA: the switch fluorescence ratio is 1.02.

For the sequence CGGCCCAGGA, the switch fluorescence ratio was 1.29.

For the sequence GAAGATTCTG, the switch fluorescence ratio was found to be 1.01.

As for TGCTTCTGGT, the switch fluorescence ratio came to 1.

On to GCTCAATATT, for which the switch fluorescence ratio was determined as 1.67.

Take AAGGATCCTC: the switch fluorescence ratio came out at 0.992.

As to TGTGTACACG, the switch fluorescence ratio was 1.04.

Consider AGCATTAGAC, for which the switch fluorescence ratio was determined as 1.52.

TCTGAGCG: the switch fluorescence ratio was determined as 0.992.

With AGTTATTC, the switch fluorescence ratio was 1.03.

For the sequence AGTCCACTCT, the switch fluorescence ratio was 1.03.

As to CAAACTATGA, the switch fluorescence ratio stood at 1.

Regarding CCCCATGTTT, the switch fluorescence ratio turned out to be 1.9.

With GCGGGGTTAA, the switch fluorescence ratio is 1.01.

For TGCGGGAAAT, the switch fluorescence ratio stood at 0.968.

Consider GTTATATAA, for which the switch fluorescence ratio came out at 1.02.

Take TACCCTAGTC: the switch fluorescence ratio was 1.07.

On to TACATCACAA, for which the switch fluorescence ratio worked out at 1.33.

In the case of AAACTTTTGC, the switch fluorescence ratio worked out at 1.

For GCTGTCCGCC, the switch fluorescence ratio was determined as 1.24.

GCAGCCCGGC: the switch fluorescence ratio was found to be 0.938.

Take CGAGTCAGGT: the switch fluorescence ratio amounted to 1.03.

Take GATTGTCATA: the switch fluorescence ratio was 1.01.

With AAACAGGGTC, the switch fluorescence ratio was 1.01.

CCGGGGCAGG: the switch fluorescence ratio came to 1.16.

Take TCGAAGGATT: the switch fluorescence ratio stood at 1.05.

Take GCAGCGAGAT: the switch fluorescence ratio is 2.14.

For TATATAAAGC, the switch fluorescence ratio worked out at 0.98.

For ACTCTTGTGC, the switch fluorescence ratio was 1.

As for TAATAGGCGC, the switch fluorescence ratio is 1.01.

Regarding CGGTGAACGT, the switch fluorescence ratio amounted to 1.01.

As to AGGCGACC, the switch fluorescence ratio stood at 1.08.

Take TAATGTCTA: the switch fluorescence ratio is 0.995.

Turning to AGTGCCTGAG, the switch fluorescence ratio came out at 1.09.

As for GTTCATGGAG, the switch fluorescence ratio was found to be 1.01.

Turning to TGATGATCTC, the switch fluorescence ratio was 0.978.

Consider CGGCGCAGG, for which the switch fluorescence ratio was determined as 1.21.

GGGTATAATT: the switch fluorescence ratio was 0.985.

In the case of CCTGGAGGAG, the switch fluorescence ratio turned out to be 1.12.

As for GGATCATAAG, the switch fluorescence ratio is 0.959.

Turning to CGGCATTTAA, the switch fluorescence ratio came out at 1.07.

On to GTTGACCGTT, for which the switch fluorescence ratio is 1.02.

Regarding AAGCCCGGTT, the switch fluorescence ratio came to 1.04.

On to CGTAGTTAGC, for which the switch fluorescence ratio stood at 1.37.

In the case of TGATCATCAT, the switch fluorescence ratio came to 1.08.

Take CGCAGGAGAT: the switch fluorescence ratio amounted to 1.01.

Turning to GAAATAAACC, the switch fluorescence ratio was 1.06.

Regarding GAGAGCCTGG, the switch fluorescence ratio was 0.961.

As to TCAGATTACT, the switch fluorescence ratio was 0.978.

Regarding GTTGCATGAG, the switch fluorescence ratio came to 1.04.

For TATGTTAGAC, the switch fluorescence ratio amounted to 1.

For the sequence ATAACAAGTT, the switch fluorescence ratio stood at 1.

TTACGCAACG: the switch fluorescence ratio was 1.39.

As to CTTATGGTAA, the switch fluorescence ratio worked out at 1.

With GAGATCTGAT, the switch fluorescence ratio worked out at 0.973.

Regarding ATTCTCGC, the switch fluorescence ratio turned out to be 1.02.

For the sequence CCGACCCCGA, the switch fluorescence ratio amounted to 2.28.

Consider CTCGCTCTAA, for which the switch fluorescence ratio turned out to be 1.18.

Take AATCTATGTC: the switch fluorescence ratio worked out at 0.984.

As for CGACTGCTGC, the switch fluorescence ratio was found to be 1.38.

Take ATTGCTGGGA: the switch fluorescence ratio was 0.991.

On to TTCCATGATA, for which the switch fluorescence ratio amounted to 1.03.

As to TTTAGAGAGG, the switch fluorescence ratio was determined as 1.02.

ATTAATTCAC: the switch fluorescence ratio was determined as 1.03.

As for ACATAGTCCA, the switch fluorescence ratio amounted to 1.01.

Take ACACTTAGTT: the switch fluorescence ratio worked out at 1.05.

As to ATGCAGTAAG, the switch fluorescence ratio is 1.01.

For ATTGTGTCGG, the switch fluorescence ratio turned out to be 0.966.

TAGTCCCCCG: the switch fluorescence ratio was found to be 0.997.

On to ACGACAGGAT, for which the switch fluorescence ratio was determined as 1.08.

Regarding ATTATTACTA, the switch fluorescence ratio was determined as 1.03.

As to AAATAGTCAC, the switch fluorescence ratio was 1.07.

Regarding TTTAAACCAG, the switch fluorescence ratio amounted to 0.994.

TATCCATCCG: the switch fluorescence ratio was found to be 1.03.

With CGGATGCGAC, the switch fluorescence ratio came to 1.09.

For the sequence GAGTCAGTAG, the switch fluorescence ratio is 1.06.

For the sequence CATCTTTCTT, the switch fluorescence ratio is 1.

For the sequence TCGGTATCGG, the switch fluorescence ratio is 1.

On to TAGCTCGAAT, for which the switch fluorescence ratio was determined as 0.991.

For the sequence AAAAGCTATA, the switch fluorescence ratio was found to be 1.05.

Take AATGGCAAAA: the switch fluorescence ratio turned out to be 0.996.

As for AATTCGCATT, the switch fluorescence ratio turned out to be 1.26.

Take CGCCAGCAGT: the switch fluorescence ratio is 3.02.

With ATTGGTCTTG, the switch fluorescence ratio was found to be 1.01.

Take TATTAATCAG: the switch fluorescence ratio turned out to be 0.961.

Regarding GGAAGATAGG, the switch fluorescence ratio is 0.976.

For GATCTTTGCG, the switch fluorescence ratio is 1.04.

CCTCCCCGGT: the switch fluorescence ratio was 3.98.

In the case of CTGTCCTAAA, the switch fluorescence ratio is 0.998.

For TGACGAAAGG, the switch fluorescence ratio came to 0.98.

The record behind these values is the supplement of paper PMC10126150.
